# Test results: patent publication US20220073613A1, “ACTIVATABLE MASKED ANTI-CTLA4 BINDING PROTEINS” (Xilio Development, Inc., priority 2018, published 2022)
# Columns and labels:
# [1] = test system: murine tumor, tissue, and plasma conditioned media; test: Ex vivo cleavage in murine tumor, tissue, and plasma, CTLA4 ELISA; type: in vitro ADME
# Description: In another study, ex vivo cleavage in murine tumor, tissue, and plasma was assessed using a CTLA4 ELISA assay. This included the following murine models: C57/B16 (N=9), MC38 in wild type mice (N=9), MC38 in hCTLA4 mice (N=5), MB49 in wild type mice (N=6), MCA205 in wild type mice (N=4), and B16 in wild type mice (N=4). Cleavage in tumors, spleen, liver, kidney, and plasma was assessed. Plasma samples were pooled. Frequency of cleavage and the percentage of the molecule cleaved (median) were calculated.
# [2] = In vivo cleavage of masked antibodies in plasma of MC38 tumor-bearing mice, Western blot; set-up: species or system C57BL/6J mice; settings: MC38-bearing mice, 200 μg i.p., days 2, 4, 7
# Description: MC38 cells (1×10^6) were injected subcutaneously into seven-eight week old female C57BL/6J mice subcutaneously. On day 0, the mice were randomized based on tumor volume measurements and injected intraperitoneally with 200 μg of Antibody 2 constructs. Blood was collected via RO sinus on days two and four and processed with LiHep for plasma isolation. On day seven, blood was collected via cardiac puncture and process with LiHep for plasma isolation. Plasma was aliquoted and stored at −80 C until Western blot analysis. Standard samples where the masked antibody was treated in the presence or absence of protease in vitro were included as positive controls. For Western blot analysis, plasma samples were diluted in PBS, then in Laemmli Sample Buffer and βME. Samples were heated at 95° C. then loaded on a Criterion TGX Stain-free Precast gel. SDS-PAGE was performed at 200 V for forty-two minutes. Protein was transferred to nitrocellulose membrane and blocked in 1×TBS with 1% Casein Blocker for one hour at room temperature shaking. The membrane was probed with HRP-conjugated Rb mAb to human Kappa Light Chain [clone EPR5367-8], diluted 1:10,000 in Casein Blocker, overnight at 4° C. shaking. The membrane was washed three times with PBS-Tween and developed with SuperSignal ELISA Pico Chemiluminescent Substrate. Raw data was analyzed with ImageLab software.
# In vivo experiment was performed in two cohorts across two weeks, with Antibody 2-14 included in both cohorts. Antibodies that were tested include Antibody 2-14, Antibody 2-15, Antibody 2-16, Antibody 2-17, Antibody 2-18, Antibody 2-19, Antibody 2-20, and Antibody 2-21. Antibody 2-15 includes a cleavable peptide sequence that is non-cleavable, for use as a negative control.
# [3] = test system: Ki67+ cells in CD4+ cells; test: Pharmacodynamic effects in cynomolgus monkeys; settings: cynomolgus monkey, in vivo
# Description: In a first set of experiments, cynomolgus monkeys were administered ipilimumab, Antibody 2-6, Antibody 2-10, or an isotype control, and pharmacodynamic (PD) effects were assessed by measuring the percentage (%) of Ki67+ cells in CD4+ cells. In a second set of experiments, cynomolgus monkeys were administered Antibody 2-6, Antibody 2-10, Antibody 2-14, Antibody 2-16, or an isotype control, and pharmacodynamic effects were assessed by measuring the percentage (%) of Ki67+ cells in CD4+ cells.
# [4] = In vivo cleavage detection in tumor, liver, kidney, spleen and plasma (western blot) and CTLA4 binding of recovered antibody; set-up: species or system B-hCTLA-4 transgenic mice; settings: MB49-bearing B-hCTLA4 transgenic mice; CTLA4-coated MSD plate
# Description: B-hCTLA-4 transgenic female mice were purchased from Biocytogen and were 8-10 weeks old at the start of study. MC38 colorectal tumor cells (5×10^5 cells per mouse), MB49 bladder cancer cells (1×10^6 cells per mouse) or MCA205 fibrosarcoma cells (1×10^6 cells per mouse) were subcutaneously into the right flank of each mouse. Upon reaching ˜250-500 mm^3 sized tumors (day 0), the mice received a single 10 mg/kg intraperitoneal dose of indicated antibodies. Tumor, liver, kidney, spleen and plasma harvested on day 4 for analysis of cleavage by western blot.
# For plasma samples, a direct western blot approach is utilized by separating equal volumes of denatured plasma (1-2 μL input) on a gradient criterion precast gel (BioRad). Separated proteins were then transferred into a nitrocellulose membrane using Turbo Transblot system (BioRad). Membranes were than developed using standard methods for anti-human kappa light chain reactivity with an HRP conjugated antibody (ab202549). Cleavage is assessed visually as the cleaved light chain migrates lower than the un-cleaved light chain with a mass difference of 2 kD.
# Protein lysates from tumor, liver, spleen and kidney were generated using Tissue Lyser II (Qiagen) bead homogenizer in RIPA buffer (Pierce, 87788) supplemented with protease and phosphatase inhibitors (Thermo Fisher, 78442). Protein concentrations were determined by BCA assay and 3 mgs of tissue lysate was subjected to immunoprecipitation with biotin conjugated anti-human kappa light chain antibody (LSBio, LS-C351451-500) and streptavidin magnetic beads (Pierce, 88816). Proteins were eluted in 50 μL 10 mM Glycine (pH 2) and neutralized with 1M Tris (pH 8) prior to western blot detection of human kappa light chain as described above.
# Studies were also carried out where IgG levels of each antibody administered to MB49-bearing mice was quantified by an ELISA assay and then each sample was assayed in a 3-fold dilution series starting at 1 μg/mL for spleen or 0.04 μg/mL for kidney and liver tissue, on a CTLA4-coated MSD plate to assess CTLA4 binding. These studies included a non-masked parental antibody (Antibody 2-6), masked and cleavable antibodies (e.g., Antibody 2-14 and Antibody 2-16), and a masked but non-cleavable antibody (Antibody 2-10). FIG. 24D is an SDS-PAGE analysis showing the percentage (%) of product cleaved for Antibody 2-14. […] FIG. 24F depicts a heat map of the in vitro cleavage of cleavable peptide substrates by a panel of exemplary proteases.
Molecule,"Percentage (%) cleaved molecule ([1]; B16-wt, Kidney (n = 4)) [%]","Percentage (%) cleaved molecule ([1]; B16-wt, Liver (n = 4)) [%]","Percentage (%) cleaved molecule ([1]; B16-wt, Plasma (n = 1)) [%]","Percentage (%) cleaved molecule ([1]; B16-wt, Spleen (n = 4)) [%]","Percentage (%) cleaved molecule ([1]; B16-wt, Tumor (n = 4)) [%]","Percentage (%) cleaved molecule ([1]; C57/B16-wt, Kidney (n = 9)) [%]","Percentage (%) cleaved molecule ([1]; C57/B16-wt, Liver (n = 9)) [%]","Percentage (%) cleaved molecule ([1]; C57/B16-wt, Plasma (n = 2)) [%]","Percentage (%) cleaved molecule ([1]; C57/B16-wt, Spleen (n = 9)) [%]","Percentage (%) cleaved molecule ([1]; MB49-wt, Kidney (n = 6)) [%]","Percentage (%) cleaved molecule ([1]; MB49-wt, Liver (n = 6)) [%]","Percentage (%) cleaved molecule ([1]; MB49-wt, Spleen (n = 6)) [%]","Percentage (%) cleaved molecule ([1]; MB49-wt, Tumor (n = 6)) [%]","Percentage (%) cleaved molecule ([1]; MC38-hCTLA4, Kidney (n = 5)) [%]","Percentage (%) cleaved molecule ([1]; MC38-hCTLA4, Liver (n = 5)) [%]","Percentage (%) cleaved molecule ([1]; MC38-hCTLA4, Plasma (n = 1)) [%]","Percentage (%) cleaved molecule ([1]; MC38-hCTLA4, Spleen (n = 5)) [%]","Percentage (%) cleaved molecule ([1]; MC38-hCTLA4, Tumor (n = 5)) [%]","Percentage (%) cleaved molecule ([1]; MC38-wt, Plasma (n = 1)) [%]","Percentage (%) cleaved molecule ([1]; MCA205-wt, Kidney (n = 4)) [%]",also measured
"Antibody 2-15: masked Antibody 2-6: mask CPGKGLPSC, non-cleavable peptide GSGGSG; SEQ ID NO: 423 and 421; negative control (protein) light: ACPGKGLPSCGGGSSGGSGGSGGSGSGGEIVLTQSPDFQSVTPKEKVTITCSANSALSYMYWYQQKPDQSPKLWVHGTSNLASGVPSRFSGSGSGTDFTLTINSLEAEDAATYYCHHWSNTQWTFGGGTKVEIKRTVAAPSVFIFPPSDEQLKSGTASVVCLLNNFYPREAKVQWKVDNALQSGNSQESVTEQDSKDSTYSLSSTLTLSKADYEKHKVYACEVTHQGLSSPVTKSFNRGEC heavy: QVQLVQSGAEVKKPGSSVKVSCKASGYTFTNYFMNWVRQAPGQGLEWMGRVDPEQGRADYAEKFKKRVTITADKSTSTAYMELSSLRSEDTAVYYCARRAMDNYGFAYWGQGTLVTVSS[human IgG1 constant region with changes left out here]",3,0,0,0,0,4,2,3,2,2,6,0,5,4,0,0,0,0,0,4,"Percentage (%) cleaved molecule ([1]; MCA205-wt, Liver (n = 4)): 2%; Percentage (%) cleaved molecule ([1]; MCA205-wt, Spleen (n = 4)): 12%; Percentage (%) cleaved molecule ([1]; MCA205-wt, Tumor (n = 4)): 2%; activation in vivo (cleavage in plasma) [2]: not detected"
"Antibody 2-10: masked Antibody 2-6: mask CPFPALELC, non-cleavable peptide GSGGSG; SEQ ID NO: 427 and 421; negative control (protein) light: ACPFPALELCGGGSSGGSGGSGGSGSGGEIVLTQSPDFQSVTPKEKVTITCSANSALSYMYWYQQKPDQSPKLWVHGTSNLASGVPSRFSGSGSGTDFTLTINSLEAEDAATYYCHHWSNTQWTFGGGTKVEIKRTVAAPSVFIFPPSDEQLKSGTASVVCLLNNFYPREAKVQWKVDNALQSGNSQESVTEQDSKDSTYSLSSTLTLSKADYEKHKVYACEVTHQGLSSPVTKSFNRGEC heavy: QVQLVQSGAEVKKPGSSVKVSCKASGYTFTNYFMNWVRQAPGQGLEWMGRVDPEQGRADYAEKFKKRVTITADKSTSTAYMELSSLRSEDTAVYYCARRAMDNYGFAYWGQGTLVTVSS[human IgG1 constant region with changes left out here]",3,1,0,2,0,3,3,5,2,1,7,0,15,3,2,0,0,0,0,1,"peripheral PD effects, percentage (%) of Ki67+ cells in CD4+ cells [3]: blocks the PD effects associated with Antibody 2-6; Percentage (%) cleaved molecule ([1]; MB49-wt, Plasma (n = 1)): 0%; Percentage (%) cleaved molecule ([1]; MC38-wt, Kidney (n = 9)): 1%; Percentage (%) cleaved molecule ([1]; MC38-wt, Liver (n = 9)): 1%; Percentage (%) cleaved molecule ([1]; MC38-wt, Spleen (n = 9)): 3%; Percentage (%) cleaved molecule ([1]; MC38-wt, Tumor (n = 9)): 0%; Percentage (%) cleaved molecule ([1]; MCA205-wt, Liver (n = 4)): 0%; Percentage (%) cleaved molecule ([1]; MCA205-wt, Plasma (n = 1)): 0%; Percentage (%) cleaved molecule ([1]; MCA205-wt, Spleen (n = 4)): 0%; Percentage (%) cleaved molecule ([1]; MCA205-wt, Tumor (n = 4)): 0%; binding to CTLA4 of antibody isolated from plasma, kidney, liver, or spleen [4]: reduced binding as compared to the unmasked parental Antibody 2-6"
